Values joined by “and” are separate entries in the source; they are usually repeats but may differ in a detail not shown here. Equal values may be shown once.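 Following 48 hours of exposure in 96-well plates, responses at five concentrations were used to interpolate endpoints linearly. GI50 = concentration required for 50% inhibition of growth. TGI: total growth inhibition.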
What follows are compounds tested on NCI-H322M lung (assay: NCI tumour cell line growth inhibition, 48 h).

Structure (SMILES)	TGI	GI50
CCCCN1CCC(O)(c2cc(C(=O)O)[nH]c2-c2cc(C)no2)C1=O (stereo unspecified)	> 100 µM	
COc1ccc(NS(=O)(=O)c2ccc(N=C3C=C(Nc4ccc(S(=O)(=O)Nc5ccc(OC)nn5)cc4)C(=O)c4ccccc43)cc2)nn1	31.8 µM	
CC(C)Cc1ccc(C(C)/C=C2\CCC(CN3CCCCC3)C2=O)cc1 (stereo unspecified)	27.7 µM	
COC1C(O)CC(OC2CC(OC3CC(O[C@@H]4C(=O)c5c(cc6cc(OC7CC(OC8CC(O)C(O)C(C)O8)C(O)C(C)O7)c(C)c(O)c6c5O)CC4[C@H](OC)[C@@H](O)C(C)=O)OC(C)C3O)OC(C)C2O)OC1C (stereo partly specified)	> 33.3 µM	0.0194 µM
CC1(C)Oc2ccccc2[N+]([O-])=C1c1ccccc1	> 100 µM	
COc1cc(/C=C2\Cc3ccccc3C2=O)cc(OC)c1OC	> 100 µM	
COc1ccc2c(c1)OC1c3ccccc3OCC21 (stereo unspecified)	> 100 µM	
CC(c1ccccc1)C(O)S(=O)(=O)O (stereo unspecified)	> 100 µM	
CC1(C)OC2COC(c3[nH]nc4c(=O)[nH]c(=O)[nH]c34)C2O1 (stereo unspecified)	> 100 µM	
CC(C)C1=CC23CCC4C(C)(C(=O)O)CCCC4(C)C2CC1C1C(=O)N(c2cccc(N4C(=O)C5C6CC7C8(C)CCCC(C)(C(=O)O)C8CCC7(C=C6C(C)C)C5C4=O)c2)C(=O)C13 (stereo unspecified)	3.84 µM	
N#Cc1c2ccc([N+](=O)[O-])cc2c(=O)n2c1sc1ccccc12	61.1 µM	
Cc1ccccc1C[P+](c1ccccc1)(c1ccccc1)c1ccccc1	> 100 µM	7.22 µM
Cc1ccc2c(c1)-c1oc(=O)c(-c3cc4ccccc4oc3=O)cc1C(O)O2 (stereo unspecified)	54.1 µM	18.5 µM
Nc1nc(Cl)c(C=O)c(NCC2(CO)CCC2)n1	61 µM	
COc1ccccc1N1CCN(CCCOc2ccc(C(=O)/C=C3/C(=O)Nc4ccccc43)cc2)CC1	> 91 µM	18.6 µM
C(#C[C@@]12CCC[C@@H]1N(Cc1ccccc1)CO2)c1ccc2c(c1)OCO2	> 100 µM	
CCOC(=O)/C=C/c1c[nH]c(=O)[nH]c1=O	> 75 µM	
CC(C)=CCC/C(C)=C/CC/C(C)=C/C1CCC(=O)C1(C)C (stereo unspecified)	> 100 µM	
CC(C)C[C@H](NC(=O)CCc1cccc2ccccc12)B(O)O	> 100 µM	

Structure (SMILES)	TGI	GI50
NS(=O)(=O)c1nnc(NC(=O)/C=C/C(=O)O)s1	> 100 µM	
CCN(CC)/[N+]([O-])=N/OCC(C)O (stereo unspecified)	> 100 µM	
Clc1ccc(COC(Cn2ccnc2)c2ccc(Cl)cc2Cl)c(Cl)c1 (stereo unspecified)	26.1 µM and 22.5 µM	
CCN(CC)CCOc1ccc(Cc2ccccc2)cc1	> 100 µM	49.6 µM
O=C(NNC(=O)c1c(Cl)c(Cl)c(Cl)c(Cl)c1-c1nc2ccccc2[nH]1)c1ccc(Cl)cc1	> 100 µM	
COC(=O)CCCNC(=O)C(=O)c1c(O)c(O)c(C(C)C)c2cc(C)c(-c3c(C)cc4c(C(C)C)c(O)c(O)c(C(=O)C(=O)NCCCC(=O)OC)c4c3O)c(O)c12	> 32.5 µM	0.704 µM
CC(C)C1NC(=O)[C@H](C)OC(=O)[C@@H](C(C)C)NC(=O)[C@@H](C)OC(=O)C(C(C)C)NC(=O)[C@H](C)OC1=O (stereo partly specified)	> 100 µM	
C[C@H](CO)C1=CC(C#C[Si](C)(C)C)N(C(=O)Oc2ccccc2)c2ccccc21 (stereo partly specified)	29.7 µM	
CCCCn1c(C)c2c(c1C)C(=O)N(CCN1CCN(c3ccccc3Cl)CC1)C2=O	> 100 µM	
COc1ccc(S(=O)(=O)Nc2ccc(-c3csc(N4C(=O)/C(=C/c5cccs5)N=C4c4ccccc4)n3)cc2)cc1Cl	> 100 µM	
CC(=Nc1ccccc1)C1=C(O)C(Cc2ccc(F)cc2)NC1=O (stereo unspecified)	> 100 µM	3.34 µM
NC(Cc1ccc(O)cn1)C(=O)O (stereo unspecified)	> 100 µM	
CCSc1nc(C)nc2c1sc1nc3ccccc3n12	> 100 µM	
CCOC(=O)c1csc(-c2nc(CCNC(=O)c3ccccc3)sc2Cl)n1	> 100 µM	
N[C@@H](Cc1ccc2oc3cc(=O)c4ccccc4c-3nc2c1)C(=O)O	> 100 µM	
COC(=O)[C@H](Cc1cn(C)cn1)NC(=O)[C@@H](NC(=O)Nc1cc(C(F)(F)F)cc(C(F)(F)F)c1)C(C)(C)C	> 10 µM	> 10 µM
COC(=O)[C@]1(Cc2ccc3ccccc3c2)CCCCCCN1C(=O)c1ccccc1	> 61.5 µM	
COC(=O)/C=C/c1cnc2c(c1)oc(=O)n2C	> 100 µM	
O=P(O)(O)CC1OC(CO)C(O)C1O (stereo unspecified)	> 100 µM	

— PubChem BioAssay (NCI)
